Laboratory results taken from the supplement of paper PMC4166925.
± gives the standard deviation of the averaged measurements. Whole data set: some 33,000 sequences, median “E-score (dimensionless, -0.5 to 0.5)” near -0.049, cut for the highest 2% near 0.37. Some of the results follow.

These sequences were tested on T1, PmTbr T-box DNA-binding domain (GST fusion) (assay: PBM E-score of 8-mer (E-score (dimensionless, -0.5 to 0.5)); Tbr is Tbrain of the sea star Patiria miniata (Pm) or the sea urchin Strongylocentrotus purpuratus (Sp); higher = stronger binding preference; most listed sequences are background and not binding sites). Conditions: the construct has about 5 more residues each side.
T1 sequence: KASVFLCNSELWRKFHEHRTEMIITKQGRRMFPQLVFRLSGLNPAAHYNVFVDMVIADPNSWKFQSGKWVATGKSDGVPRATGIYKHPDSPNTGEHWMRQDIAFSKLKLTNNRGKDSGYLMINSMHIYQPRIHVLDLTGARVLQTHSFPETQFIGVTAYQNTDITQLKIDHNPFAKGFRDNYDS
Outline: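 GST-fused Tbr T-box DNA-binding domains (the whole T-box plus about five flanking residues) were expressed in BL21 E. coli at 20 °C and purified by glutathione affinity chromatography. Universal Agilent oligonucleotide arrays were made double-stranded by primer extension, incubated with 200 nM protein in PBS (pH 7.5), then scanned and quantified. Every ungapped 8-mer was scored from probe intensities. The Universal PBM Analysis Suite gave each word an enrichment E-score, averaged over duplicate arrays.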

Row | Sequence | PBM E-score of 8-mer
1 | AACCGGTG | -0.0227 ± 0.049
2 | GTCGATTA | -0.0359 ± 0.0087
3 | TCACGTAA | -0.118 ± 0.023
4 | CGGCCAAA | -0.076 ± 0.005
5 | CACCGCTA | 0.166 ± 0.058
6 | ATTGTTAA | 0.223 ± 0.0061
7 | CTGTTAAG | 0.0153 ± 0.088
8 | GCTTGACA | 0.237 ± 0.03
9 | AACTGTGT | 0.191 ± 0.033
10 | AGCAAGCA | 0.00822 ± 0.086
11 | GCCCCCGC | -0.131 ± 0.036
12 | ACGGCCAT | -0.105 ± 0.12
13 | GACGCTGA | -0.201 ± 0.055
14 | TCCATGAA | -0.174 ± 0.038
15 | CGAGCAAC | 0.0217 ± 0.067
16 | GGTTACCA | -0.0529 ± 0.0032
17 | GTAGCGGA | -0.0618 ± 0.041
18 | ATTGGCAA | 0.107 ± 0.041
19 | CGTCGGGA | -0.179 ± 0.12
20 | CTGGTCGC | 0.0232 ± 0.025
21 | ACGCGGAT | 0.0103 ± 0.07
22 | ATTTCCCG | -0.133 ± 0.0071
23 | ATCACGCA | 0.167 ± 0.0099
24 | AAAGCGCT | 0.0653 ± 0.07
25 | TAGAGGAA | -0.273 ± 0.0069

Row | Sequence | PBM E-score of 8-mer
26 | AAAGGTCT | -0.225 ± 0.015
27 | AGAGTGTA | 0.0538 ± 0.058
28 | CCTGTTAA | 0.185 ± 0.023
29 | ATAGAACA | 0.0787 ± 0.1
30 | CGTCACTA | 0.2016 ± 0.00077
31 | CCAATCAG | -0.0904 ± 0.015
32 | AGCGGCAG | -0.0666 ± 0.088
33 | ATGTACTA | -0.15 ± 0.027
34 | CCGTGTTA | 0.24 ± 0.041
35 | ACCTTTAG | 0.134 ± 0.032
36 | ACTAAGGC | 0.00963 ± 0.088
37 | TCAGAGCA | -0.152 ± 0.053
38 | AAATTCCA | -0.0182 ± 0.023
39 | GCACGGCA | -0.00238 ± 0.06
40 | GGGAGGTA | -0.142 ± 0.042
41 | ATATGATA | 0.118 ± 0.053
42 | ACGCTGTG | -0.015 ± 0.023
43 | ACAACAAC | 0.211 ± 0.014
44 | ACTCAAAT | -0.125 ± 0.039
45 | GACTTAAC | 0.108 ± 0.0043
46 | AATTAATA | -0.105 ± 0.11
47 | CGCTCCAG | -0.118 ± 0.011
48 | GAGTGCGC | -0.0278 ± 0.044
49 | ATAATATA | -0.0665 ± 0.069
50 | ATCACGTG | 0.271 ± 0.045

Row | Sequence | PBM E-score of 8-mer
51 | AATCAAGC | 0.0954 ± 0.083
52 | AGACACCC | 0.259 ± 0.023
53 | CAACTTAC | 0.0379 ± 0.039
54 | CTGGCCCA | -0.312 ± 0.078
55 | AGCCGCTA | 0.0966 ± 0.0034
56 | CATCAGGA | -0.311 ± 0.0035
57 | CGCATGAC | -0.146 ± 0.044
58 | TCGTGCAA | 0.057 ± 0.0072
59 | CCGGCTTC | -0.132 ± 0.029
60 | GAGGGTGC | 0.389 ± 0.018
61 | AAGTTGAT | 0.159 ± 0.034
62 | CATAATCA | -0.0127 ± 0.011
63 | CCTCTCTC | 0.095 ± 0.0011
64 | ACTGATGC | 0.00524 ± 0.022
65 | AGTGTCTG | 0.218 ± 0.017
66 | ACCCGGTC | -0.189 ± 0.0072
67 | ACTTATTC | 0.123 ± 0.032
68 | AAGCTTCG | -0.0415 ± 0.026
69 | CGTGCGAC | 0.277 ± 0.018
70 | TAGGACCA | -0.249 ± 0.011
71 | CATCCAAA | -0.163 ± 0.034
72 | AGTGGCAG | 0.166 ± 0.021
73 | ATTATATG | -0.141 ± 0.042
74 | GGTTCTCA | 0.0872 ± 0.085
75 | CACTTCGG | 0.363 ± 0.015

Row | Sequence | PBM E-score of 8-mer
76 | CTCAATGA | -0.0821 ± 0.0073
77 | CCCCGTAG | -0.122 ± 0.047
78 | TAACATTA | -0.108 ± 0.022
79 | AGCAAAGC | -0.101 ± 0.1
80 | CCTCACGA | -0.0676 ± 0.027
81 | TGCGAAAA | 0.391 ± 0.03
82 | GTCCGGGA | -0.176 ± 0.0028
83 | ATAATTCC | -0.198 ± 0.036
84 | ATCTCACA | 0.372 ± 0.021
85 | CCAATATC | -0.046 ± 0.043
86 | ACCTACCC | 0.274 ± 0.0016
87 | AAGAGAGG | -0.172 ± 0.0039
88 | GAAAAGTC | 0.075 ± 0.077
89 | AGAATGCT | -0.103 ± 0.027
90 | AAATGTTG | -0.0162 ± 0.038
91 | TACATGGA | -0.0618 ± 0.0043
92 | CCAGCCAC | 0.0685 ± 0.028
93 | ATTATTGA | -0.132 ± 0.072
94 | GAGCCTAC | -0.223 ± 0.082
95 | ATGAAACG | -0.217 ± 0.089
96 | CCCCGTAA | 0.0991 ± 0.072
97 | CAAGCGCC | -0.172 ± 0.049
98 | CACAGGAC | 0.0835 ± 0.033
99 | AGGGTTGC | -0.0644 ± 0.0023
100 | AGTAGTTC | 0.0935 ± 0.042

Row | Sequence | PBM E-score of 8-mer
101 | GTCGGGCA | 0.17 ± 0.061
102 | ACCTAGAG | 0.0254 ± 0.044
103 | ACTTTAGG | -0.0957 ± 0.054
104 | AAATCGAT | -0.128 ± 0.094
105 | CTTTGCAA | 0.0814 ± 0.088
106 | CCTCTCAG | -0.14 ± 0.047
107 | GACTCCGC | -0.0515 ± 0.023
108 | GGCGCTAA | 0.426 ± 0.0098
109 | AGACGTTG | -0.0868 ± 0.016
110 | ACCGGAAC | -0.187 ± 0.053
111 | ACCCGTTG | 0.066 ± 0.13
112 | GAATATAA | -0.0943 ± 0.03
113 | CTCGGGTC | -0.132 ± 0.064
114 | AGGAGGCC | -0.297 ± 0.034
115 | CGGTAATA | -0.308 ± 0.005
116 | GATACTAC | -0.0683 ± 0.012
117 | ATAGCTTC | -0.283 ± 0.0087
118 | AGTAACCC | -0.134 ± 0.005
119 | TTACGAAA | -0.0961 ± 0.0063
120 | AACTATTG | -0.075 ± 0.054
121 | AAGCCATT | -0.111 ± 0.099
122 | CCCAAAGC | -0.168 ± 0.015
123 | AGTGACAA | 0.4196 ± 0.0018
124 | CCTCTCCG | -0.084 ± 0.01
125 | ACGACTCG | 0.264 ± 0.016

Row | Sequence | PBM E-score of 8-mer
126 | TCACGACA | 0.276 ± 0.012
127 | AGTAGGCA | -0.17 ± 0.099
128 | AGATGAGG | -0.231 ± 0.012
129 | AGGAGTGC | 0.109 ± 0.024
130 | GAAACCTC | -0.152 ± 0.14
131 | ACAGAAAC | 0.0765 ± 0.034
132 | CAGGTAAC | 0.128 ± 0.019
133 | CGTATCTA | -0.21 ± 0.063
134 | CCCTCAAC | -0.1 ± 0.025
135 | CGATATCG | 0.171 ± 0.041
136 | CCATGTAG | -0.0878 ± 0.015
137 | ATCTGACA | 0.198 ± 0.039
138 | AGCTCTCG | -0.116 ± 0.011
139 | AATGCCCT | -0.191 ± 0.076
140 | AAGAAAGA | -0.288 ± 0.041
141 | ACGGTCGG | -0.168 ± 0.012
142 | TGATCGCA | 0.243 ± 0.019
143 | CTAGAAAC | -0.0503 ± 0.068
144 | GGTGCCGA | 0.363 ± 0.016
145 | CCACATTC | 0.104 ± 0.038
146 | GCAGATCC | -0.133 ± 0.056
147 | AGGGGGCC | -0.33 ± 0.018
148 | CATTAGCA | 0.321 ± 0.0074
149 | AGGTGACT | 0.31 ± 0.015
150 | CTTTCCGC | -0.0084 ± 0.099

Row | Sequence | PBM E-score of 8-mer
151 | TGACCTAA | -0.228 ± 0.013
152 | GATAGACA | -0.0806 ± 0.04
153 | CCAGTCGG | -0.144 ± 0.038
154 | ATCCTGTG | 0.00097 ± 0.019
155 | AAGTATGG | -0.227 ± 0.062
156 | ATTAGTAC | 0.0246 ± 0.099
157 | ATGGGCGG | -0.0557 ± 0.086
158 | AATAATTA | -0.059 ± 0.03
159 | CTAAGATC | -0.116 ± 0.078
160 | GGTAGGTA | -0.131 ± 0.00086
161 | GCGTCCGA | -0.0224 ± 0.048
162 | CCCAATAG | 0.0672 ± 0.083
163 | AGCGTTTC | -0.135 ± 0.027
164 | AGCCTTTG | -0.195 ± 0.034
165 | AACGGAAT | 0.0581 ± 0.071
166 | ACAGCCGA | -0.0462 ± 0.028
167 | CGAGCACA | -0.145 ± 0.02
168 | GAATGTAA | -0.166 ± 0.1
169 | CGCGCTAA | 0.369 ± 0.0084
170 | GCCCGGCC | -0.151 ± 0.028
171 | ATTCCAAC | -0.167 ± 0.024
172 | AGATTAGG | -0.149 ± 0.045
